This note sets out measurements from patent US9566290B2, “Boron-containing small molecules” (Anacor Pharmaceuticals, Inc., priority 2005, dated 2017).

For the assay, the system named is Trichophyton rubrum (T. rubrum). The assay is described as follows: TurChub zone of inhibition assay through full thickness human nail. It counts as cell-based. To be noted: C10 10% w/v solution, 40 μL/cm^2 per day over five days; first experiment (FIG. 6), six cells. The method, then: The aim of the current study was to assess and compare the perungual absorption of C10 in a simple vehicle using MedPharm's TurChub® model (see http://www.medpharm.co.uk; specificaly http://www.medpharm.co.uk/downloads/Skin%20and%20nail%2dec%202003.pdf viewed Feb. 14, 2006). in a full scale experiment. Six replicates involving C10 were conducted and Formulations Y (8% ciclopirox w/w in commercial lacquer) and Z (Loceryl, 5% amorolfine w/v in commercial lacquer) were used as the reference formulations.
A dose of 40 μL/cm^2 of the test compound C10 in 50:50 propylene glycol:ethyl acetate was applied to a full thickness nail sample each day over a total duration of five days. Both the reference formulations were also applied at the same dose.
Placebo, test item C10 in vehicle and the reference formulations Y and Z were tested for their inhibition of Trichophyton rubrum (T. rubrum) growth after penetration through a full thickness human nail using a zone of inhibition measurement.

Not every entry of the source has a single result; some have several. This list holds those alone. There may be further records. Values that stand side by side appear to be repeats (runs, samples, wells or individuals); one of them may be the mean.

Consider `OB1OCc2cc(F)ccc21` [C10, 5-fluorobenzo[c][1,2]oxaborol-1(3H)-ol], for which the Zones of inhibition was 67, 46, 57, 38, 71% [one passage].
